Results taken from PubChem BioAssay AID504333 (National Center for Advancing Translational Sciences (NCATS), 2011).
Hit rate of the full screen: of about 360,000 compounds, about 16,000 (4.4%) were called active. This list was built around the results that the source calls inconclusive (neither active nor inactive); the mix of calls is not that of the screen. Calls follow the shape of the dose curve; as a rule, active = well fitted inhibition curve with a large enough effect; inconclusive = small, poorly fitted or top-dose-only effect; inactive = no such curve, though single readings can be large or run the other way. Potencies of inconclusive entries are doubtful fits and often do not repeat.

Target: Bromodomain adjacent to zinc finger domain protein 2B (Homo sapiens) (UniProt Q9UIF8)
Test: qHTS Assay for Inhibitors of BAZ2B; also: nearly all actives have a fitted effect of over 60% in size
Conditions: AlphaScreen BAZ2B-H3K14Ac peptide displacement; series mostly up to 114 µM
Method in brief: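 AlphaScreen displacement of biotin-H3(5-23)K14Ac peptide (50 nM final) from BAZ2B (50 nM final) in PBS pH 7.4, 0.01% Tween-20; complex preformed 30 min RT, then compounds (top 110 uM) 30 min RT, beads 20 min dark.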
Potency is read from the fitted curve at half-maximal effect; tags tell the direction and shape of the fitted curve.

Chain of UniProt Q9UIF8 (Q9UIF8 whole entry, looked up, the tested form may be a part): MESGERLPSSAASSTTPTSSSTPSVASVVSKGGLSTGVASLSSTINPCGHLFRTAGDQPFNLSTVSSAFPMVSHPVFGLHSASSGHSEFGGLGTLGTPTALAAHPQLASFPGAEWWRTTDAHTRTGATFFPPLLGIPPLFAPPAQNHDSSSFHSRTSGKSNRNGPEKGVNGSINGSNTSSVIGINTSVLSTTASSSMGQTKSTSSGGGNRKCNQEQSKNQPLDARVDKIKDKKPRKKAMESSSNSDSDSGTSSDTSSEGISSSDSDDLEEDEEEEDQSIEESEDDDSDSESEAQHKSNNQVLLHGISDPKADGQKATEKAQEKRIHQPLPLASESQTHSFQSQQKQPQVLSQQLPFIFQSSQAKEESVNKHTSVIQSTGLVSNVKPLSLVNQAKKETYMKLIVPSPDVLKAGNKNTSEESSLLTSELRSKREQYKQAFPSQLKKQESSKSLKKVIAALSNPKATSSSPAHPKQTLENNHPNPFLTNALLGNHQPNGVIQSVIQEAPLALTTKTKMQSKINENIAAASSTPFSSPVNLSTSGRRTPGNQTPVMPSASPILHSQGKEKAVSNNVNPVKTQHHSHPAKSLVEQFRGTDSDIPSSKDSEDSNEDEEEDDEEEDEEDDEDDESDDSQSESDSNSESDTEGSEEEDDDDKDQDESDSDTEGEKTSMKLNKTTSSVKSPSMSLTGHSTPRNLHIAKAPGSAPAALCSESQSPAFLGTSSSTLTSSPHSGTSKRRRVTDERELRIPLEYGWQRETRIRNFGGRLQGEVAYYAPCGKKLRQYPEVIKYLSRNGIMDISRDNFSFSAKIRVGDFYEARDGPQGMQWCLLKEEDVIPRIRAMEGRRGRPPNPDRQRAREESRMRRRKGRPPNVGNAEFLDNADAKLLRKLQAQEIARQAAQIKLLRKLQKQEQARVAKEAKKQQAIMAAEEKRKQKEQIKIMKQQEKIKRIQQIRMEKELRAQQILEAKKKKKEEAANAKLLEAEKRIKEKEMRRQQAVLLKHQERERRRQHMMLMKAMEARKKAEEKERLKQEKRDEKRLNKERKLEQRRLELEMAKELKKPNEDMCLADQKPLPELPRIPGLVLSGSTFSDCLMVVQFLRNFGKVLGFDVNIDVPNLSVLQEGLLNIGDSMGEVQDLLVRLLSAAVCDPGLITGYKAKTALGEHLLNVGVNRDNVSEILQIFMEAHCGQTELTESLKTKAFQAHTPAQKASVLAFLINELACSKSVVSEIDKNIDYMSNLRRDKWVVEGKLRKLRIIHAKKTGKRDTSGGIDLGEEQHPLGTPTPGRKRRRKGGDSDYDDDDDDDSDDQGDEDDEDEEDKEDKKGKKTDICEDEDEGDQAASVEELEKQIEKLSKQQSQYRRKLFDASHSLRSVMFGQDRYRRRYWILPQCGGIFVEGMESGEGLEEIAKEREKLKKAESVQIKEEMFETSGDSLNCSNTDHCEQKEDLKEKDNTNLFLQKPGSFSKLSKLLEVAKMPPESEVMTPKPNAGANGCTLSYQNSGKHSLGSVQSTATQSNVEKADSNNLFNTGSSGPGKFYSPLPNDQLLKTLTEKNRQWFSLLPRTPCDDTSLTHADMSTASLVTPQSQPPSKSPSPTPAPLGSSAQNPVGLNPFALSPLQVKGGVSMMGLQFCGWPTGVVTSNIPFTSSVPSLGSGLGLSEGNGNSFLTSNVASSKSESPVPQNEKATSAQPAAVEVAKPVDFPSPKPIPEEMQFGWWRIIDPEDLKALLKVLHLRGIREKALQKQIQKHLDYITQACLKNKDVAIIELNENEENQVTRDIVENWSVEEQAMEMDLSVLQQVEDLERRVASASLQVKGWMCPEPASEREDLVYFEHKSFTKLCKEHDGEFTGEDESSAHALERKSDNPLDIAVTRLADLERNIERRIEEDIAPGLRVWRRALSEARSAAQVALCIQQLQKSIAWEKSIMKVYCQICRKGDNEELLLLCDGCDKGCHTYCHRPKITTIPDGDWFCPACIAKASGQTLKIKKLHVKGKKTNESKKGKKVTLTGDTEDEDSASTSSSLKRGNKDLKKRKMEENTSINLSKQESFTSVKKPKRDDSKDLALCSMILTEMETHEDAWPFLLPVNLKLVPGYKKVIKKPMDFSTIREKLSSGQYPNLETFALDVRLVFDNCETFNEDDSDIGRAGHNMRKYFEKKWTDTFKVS

SMILES | Potency
COc1ccc(CNC(=O)C23CN(Cc4ccccc4)CC2C(c2ccc([N+](=O)[O-])cc2)=NO3)cc1 (stereo not drawn) | inconclusive: 79.4 µM [inhibitor, single point]
CCOC(=O)N1CCC(c2cc(=O)n3[nH]ccc3n2)CC1 | inconclusive: 79.4 µM [inhibitor, single point]
C=CCn1c(-c2c[nH]c3ccccc23)n[nH]c1=S | inactive
S=c1[nH]ncc2ccccc12 | inactive
Cc1ccc(-n2c(Cc3cccn3C)nnc2SCC(=O)N2CCc3ccccc32)cc1 | active: 50.1 µM
O=C(C1=C(O)C(=O)N(c2nccs2)C1c1ccccc1)c1cc2ccccc2o1 (stereo not drawn) | active: 39.8 µM
O=c1c2ccccc2oc2nc(-c3ccco3)n(Cc3ccccc3)c(=O)c12 | active: 56.2 µM
COC(=O)c1sc(-c2ccc(Cl)cc2)cc1NC(=O)c1ccccc1C(=O)O | inconclusive: 89.1 µM [inhibitor, single point]
Clc1ccc(CNc2nnnn2-c2ccccc2)c(Cl)c1 | inactive
COc1ccc(NC(=O)c2ccc(S(=O)(=O)C(F)F)cc2)c(OC)c1 | inactive
Cc1cc(C)nc(NN2C(=O)/C(=C/c3ccc(O)cc3)SC2=S)n1 | inconclusive: 89.1 µM [inhibitor, single point]
Cc1cc(NC(=O)c2cc3cccc([N+](=O)[O-])c3[nH]2)ccc1F | inconclusive: 35.5 µM [inhibitor, partial curve]
CCOC(=O)C(=NC(C)CC)NNc1ccc(Br)cc1 (stereo not drawn) | inconclusive: 50.1 µM [inhibitor, partial curve]
CCOC(=O)c1cc(-c2ccc(F)cc2)n(CCC(=O)NCCc2ccc(C)cc2)c1C | inactive
C/C(=N\Nc1nc(C(C)(C)C)cs1)c1ccc(O)cc1 | inconclusive: 70.8 µM [inhibitor, single point]
Cc1cccnc1NC(=O)Nc1cccc(Cl)c1 | inconclusive: 89.1 µM [inhibitor, single point]
Fc1ccc(/C=N/Nc2ncnc3nc[nH]c23)cc1F | inconclusive: 56.2 µM [inhibitor, partial curve]
COC(=O)c1cc(=O)n(Cc2ccc3c(c2)OCO3)c(=Nc2ccc(F)cc2)s1 | inconclusive: 22.4 µM [inhibitor, full curve]
CSCCC(NS(=O)(=O)c1ccc2c(c1)oc(=O)n2C)C(=O)N1CCN(c2cccc(Cl)c2)CC1 (stereo not drawn) | inactive
O=C(N/N=C/c1c(O)ccc2ccccc12)c1ccc[n+](CCO)c1 | active: 12.6 µM
COc1cc(CC(=O)N2CCc3ccccc32)cc(OC)c1OC | inconclusive: 89.1 µM [inhibitor, single point]
CCOc1ccc(N2C(=O)/C(=C/c3cc(OC)c(OC)c(OC)c3)N(CC(=O)OC)C2=S)cc1 | inconclusive: 56.2 µM [inhibitor, single point]

SMILES | Potency
CCN(C(=O)C1CC1)C1CCS(=O)(=O)C1 (stereo not drawn) | inconclusive: 100 µM [inhibitor, single point]
COC(=O)c1cc(NC(=O)c2nn(C)c3c2COc2ccccc2-3)cc(C(=O)OC)c1 | inconclusive: 39.8 µM [inhibitor, partial curve]
Cc1ccc(F)c(NC(=S)Nc2cccc3ccccc23)c1 | inconclusive: 8.91 µM [inhibitor, full curve, poor fit]
COc1ccc(C)cc1NC(=O)CN1C(=O)c2cccc3cccc1c23 | inconclusive: 11.2 µM [inhibitor, single point]
COc1ccc(S(=O)(=O)Nc2ccc3c(c2)CCCN3S(=O)(=O)c2ccc(C)cc2)cc1F | inconclusive: 79.4 µM [inhibitor, single point]
CCn1c(C)c(C)c2cc(C(=O)NCCc3ccco3)ccc21 | inconclusive: 39.8 µM [inhibitor, single point]
COC(=O)c1[nH]c2ccc(Cl)cc2c1NC(=O)Oc1ccccc1 | inconclusive: 89.1 µM [inhibitor, single point]
COc1ccc(N2CCN(C(=O)c3cccc(NC(=O)c4nsc5ccccc45)c3)CC2)cc1 | active: 7.94 µM
CC(Sc1nc2c(c(=O)[nH]1)CCCC2)C(=O)Nc1ccc(Br)cn1 (stereo not drawn) | inconclusive: 89.1 µM [inhibitor, single point]
CC1=NN(c2ccccc2)C(=O)/C1=C\c1cn(CCC#N)nc1-c1ccc(Cl)cc1 | inconclusive: 10 µM [inhibitor, full curve]
COc1ccc([C@]23Cc4ccccc4C(O2)C2=C(O3)C(=O)c3ccccc3C2=O)cc1 | inconclusive: 1.78 µM [inhibitor, full curve, poor fit]
Cc1cc2ccccn2c1C(C[N+](=O)[O-])c1ccc(N(C)C)cc1 (stereo not drawn) | active: 8.91 µM
COc1cc(CN2CCN(C(=O)c3cccc4ccccc34)CC2)cc(OC)c1O | active: 50.1 µM
O=C(/C=C/c1ccccc1[N+](=O)[O-])NCCCn1ccnc1 | inconclusive: 89.1 µM [inhibitor, single point]
O=C(COC(=O)c1ccccn1)Nc1ccccc1Cl | inconclusive: 79.4 µM [inhibitor, single point]
O=C(COc1ccc(/C=N/NC(=O)c2ccccc2O)cc1)Nc1ccccc1 | inconclusive: 44.7 µM [inhibitor, partial curve]
COc1ccc(/C=C/c2cc[n+](C(=O)Cc3ccccc3)cc2)cc1 | inconclusive: 79.4 µM [inhibitor, single point]
Cc1cc(C)cc(NC(=O)Cn2nnc(-c3nc(-c4ccncc4)no3)c2N)c1 | inconclusive: 79.4 µM [inhibitor, single point]
N#C/C(=C/c1cn(-c2ccccc2)nc1-c1cccc(OCc2ccc(F)cc2)c1)C(=O)NCCCn1ccnc1 | active: 10 µM
CCOC(=O)N1CCN(S(=O)(=O)c2ccc(OC)c(C(=O)N3CCCCC3)c2)CC1 | inactive
CCOc1ccc(/C=C2\SC(=S)N(NS(=O)(=O)c3ccccc3)C2=O)cc1OC | inconclusive: 31.6 µM [inhibitor, full curve]
